# Laboratory results taken from PMC4336329 (PLoS ONE, 2015).
# The campaign covered roughly 310,000 compounds. About 2,200 (0.71%) showed an effect of 50% or more. The effect is printed as a negative number. Some of the results follow. Where a SMILES comes first, the peptide text is derived from it. The star is where a group is joined. Boc = CC(C)(C)OC(=O)*
# Target: human ether-à-go-go-related gene (hERG) potassium channel (human, UniProt Q12809)
# Test: primary screen, population patch clamp on CHO cells stably expressing hERG
# Sequence of human ether-à-go-go-related gene (hERG) potassium channel (Q12809 whole entry, looked up): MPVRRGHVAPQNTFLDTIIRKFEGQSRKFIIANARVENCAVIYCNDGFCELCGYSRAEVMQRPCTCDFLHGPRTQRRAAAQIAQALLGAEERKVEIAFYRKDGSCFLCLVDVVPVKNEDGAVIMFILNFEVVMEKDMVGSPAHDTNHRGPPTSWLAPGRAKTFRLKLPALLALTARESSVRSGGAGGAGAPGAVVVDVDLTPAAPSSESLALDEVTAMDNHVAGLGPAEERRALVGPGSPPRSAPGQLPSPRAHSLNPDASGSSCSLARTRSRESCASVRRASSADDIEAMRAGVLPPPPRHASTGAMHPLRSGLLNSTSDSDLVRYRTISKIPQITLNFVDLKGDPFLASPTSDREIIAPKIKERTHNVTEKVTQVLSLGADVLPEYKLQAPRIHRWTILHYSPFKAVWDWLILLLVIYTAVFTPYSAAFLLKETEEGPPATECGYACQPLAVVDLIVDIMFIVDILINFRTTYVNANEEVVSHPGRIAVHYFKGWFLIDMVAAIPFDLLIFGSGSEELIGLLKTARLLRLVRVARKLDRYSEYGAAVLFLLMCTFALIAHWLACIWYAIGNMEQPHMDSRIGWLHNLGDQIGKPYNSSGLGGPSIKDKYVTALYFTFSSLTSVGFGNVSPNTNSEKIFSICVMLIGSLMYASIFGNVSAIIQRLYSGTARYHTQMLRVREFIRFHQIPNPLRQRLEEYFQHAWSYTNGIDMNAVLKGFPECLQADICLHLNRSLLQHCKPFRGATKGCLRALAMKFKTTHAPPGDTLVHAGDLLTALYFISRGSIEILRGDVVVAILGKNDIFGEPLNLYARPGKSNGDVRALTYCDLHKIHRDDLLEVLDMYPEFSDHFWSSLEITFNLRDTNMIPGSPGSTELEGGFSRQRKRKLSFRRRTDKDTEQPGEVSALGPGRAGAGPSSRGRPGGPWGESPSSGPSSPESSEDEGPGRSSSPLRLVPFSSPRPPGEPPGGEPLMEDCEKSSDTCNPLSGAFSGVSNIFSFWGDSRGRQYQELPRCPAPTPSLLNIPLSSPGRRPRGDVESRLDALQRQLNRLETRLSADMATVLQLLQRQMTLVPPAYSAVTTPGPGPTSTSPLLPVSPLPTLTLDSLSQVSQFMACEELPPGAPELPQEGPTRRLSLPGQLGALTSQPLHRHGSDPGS
row,SMILES,"hERG current change (%, negative = inhibition) at 1uM"
1,COc1ccc(-c2nnn(CC(=O)NC(=O)NC3CCCCC3)n2)cc1OC,8.99%
2,CCCC(=O)N1CCN(c2ccc(NC(=S)NC(=O)CC)cc2)CC1,2.6%
3,CC(NC(=O)OC(C)(C)C)C(=O)N1CCCC1C(=O)NC(Cc1ccccc1)C(N)=O (stereo not drawn) (Boc-Ala-Pro-Phe-NH2; configuration not given here),-8.3%
4,Cc1ccccc1NC(=O)Cc1nnc(N)s1,9.3%
5,Cc1cccc(C)c1NC1=NCCCS1,-9.2%
6,O=[N+]([O-])c1ccc(OCc2cccc(COc3ccc([N+](=O)[O-])cc3)n2)cc1,14.2%
7,COc1ccc(CCNC(=O)c2cc(=O)c3cc(C)ccc3o2)cc1,6.92%
8,Nc1nc2nc(-c3ccc(OCc4ccccc4)cc3)cc(C(F)(F)F)n2n1,6.03%
9,O=C(c1ccc(S(=O)(=O)N2CCOCC2)cc1)N1CCN(c2ccc(F)cc2)CC1,5.28%
10,COCc1cc(C)nc(SCC(=O)c2ccc(O)c(O)c2)c1C#N,8.22%
11,Cc1nc2ccc(NC(=O)N3CCOCC3)cc2nc1C,18.3%
12,Cc1ccc(NC(=O)COc2ccc(C(=O)c3ccccc3)cc2)c(O)c1,4.33%
13,Clc1ccc(NC2=NCCCCC2)cc1,5.53%
14,CCOC(=O)c1cc(-c2ccc(C)cc2)n(CCC(=O)NCCCOC)c1C,5.73%
15,Cc1ccc(CNC(=O)CSc2nnc3c(n2)[nH]c2ccccc23)cc1,14%
16,COC(=O)c1ccccc1NC(=O)CSc1nc(N)cc(=O)[nH]1,9.66%
17,CCOC(=O)CNC(=O)Cn1cnc2c(nnn2-c2ccc(C)cc2)c1=O,12.9%
18,Cc1ccc(S(=O)(=O)c2c[nH]c3ccc(Cl)cc3c2=O)cc1,10.5%
19,O=C(Nc1ccc2ccccc2c1)[C@@H]1C[C@H]1[C@@H](NP(=O)(c1ccccc1)c1ccccc1)c1ccccc1,18.7%
20,COc1cc(C(=O)Nc2cc(C)nn2-c2ccccc2)cc(OC)c1OC,13.8%
21,O=C(NCCN1C(=O)S/C(=C\c2cccnc2)C1=O)C1=NN(c2ccccc2)C(=O)CC1,13.6%
22,Cc1ccnc(NC(=O)c2ccc3c(c2)NC(=O)C(C)S3)c1 (centres unmarked),8.35%

row,SMILES,"hERG current change (%, negative = inhibition) at 1uM"
1,CCCc1nc2ccccc2n1CCc1ccccc1,2.22%
2,C/C(Cn1nnc2ccccc21)=N\OC(=O)c1ccccc1C,-23.1%
3,O=C(CSc1cccc2cccnc12)Nc1ccccc1F,3.23%
4,CSCCC(C(=O)O)N1C(=O)c2ccc(C(=O)O)cc2C1=O (centres unmarked),8.2%
5,Cc1ccc(OCC(=O)n2cnnc2N)c(C)c1,13%
6,CCN(CC(=O)Nc1c(F)cccc1F)C(=O)c1ccc(C2SCCS2)cc1,13.2%
7,CC1(C)CC(=O)C2=C(C1)NC(SCC(=O)Nc1ccccc1)=C(C#N)C21CCCCC1,-0.842%
8,O=C(Nc1ccc2c(c1)OCCO2)C1CC(O)CN1C(=O)Nc1ccccc1 (centres unmarked),11.3%
9,CC(C)CCN(C)c1ccc(/C=N/n2cnnc2)cc1,3.22%
10,CCOc1ccccc1NC(=O)C(=O)CC(=O)c1ccc(OC)cc1,6.43%
11,COc1ccc(-c2cc(C(F)(F)F)c3c(N)c(C(=O)NCCSC)sc3n2)cc1,4.51%
12,Cc1ccc(N(C(C)C(=O)Nc2cc(Cl)ccc2Oc2ccccc2)S(C)(=O)=O)cc1 (centres unmarked),14.5%
13,Cc1ccc(C(=O)NC(=S)NCCN2CCOCC2)cc1,19.3%
14,Cn1c(=O)c2c(nc(CN3CCCCC3)n2Cc2c(F)cccc2Cl)n(C)c1=O,12.8%
15,CCCCNC(=O)C1CCN(S(=O)(=O)c2c(C)noc2/C=C\c2ccc(OC)cc2)CC1,7.41%
16,CC1CCN(c2nc3ccccc3nc2N2CCC(C)CC2)CC1,8.24%
17,COC(=O)c1c(NC(=O)/C=C/C(=O)O)sc(Cc2ccccc2)c1C,-0.673%
18,Cc1cccc[n+]1CC(=O)Nc1ccccc1.[Cl-],4.07%
19,CCOC(=O)c1c(NC(=O)c2c(C(=O)O)cccc2[N+](=O)[O-])sc(C)c1C,19.4%
20,COc1cc(-c2n[nH]c(=O)o2)cc(OC)c1OC,-1.3%
21,O=C(Nc1ccccc1F)c1ccc(COc2ccc(Cl)cc2Cl)o1,10.2%
22,N#CCSc1nnc(-c2ccc(F)cc2)n1N,11.3%
